Hit rate of the full screen: of about 120,000 compounds, about 5,300 (4.4%) were called active. The inconclusive results got no clear call from the source; some entries with a clear call stand among them for comparison. Calls come from the whole dose curve; as a rule, active = well fitted inhibition curve with a large enough effect; inconclusive = small, poorly fitted or top-dose-only effect; inactive = no such curve, though single readings can be large or run the other way. Potencies beside an inconclusive call are fits to weak or partial responses and may not hold up.
Test: qHTS Primary assay for Inhibitors of Plasmodium falciparum Dd2 growth in vitro; note: nearly all actives have a fitted effect of over 65% in size;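 for activity, negative = inhibition: plate controls were DMSO vehicle for no effect and reference drug for full effect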
Details: P. falciparum Dd2 growth, SYBR Green, 72 h; activity, negative = inhibition: at 28.9 µM (top of the series) unless noted; series mostly up to 28.9 µM
How it was run: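 Infected erythrocytes (Dd2, 0.3% parasitemia, 2.5% hematocrit final) are added to compound in RPMI-1640/Albumax II medium, grown 72 h at 37C in low oxygen, then lysed with saponin/Triton-X containing SYBR Green and read by fluorescence.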
For `CC[C@H]1CN2CC[C@H]1C[C@@H]2CN(Cc1cccs1)Cc1cccs1`, the Potency was inconclusive: 2.82 µM [inhibitor, partial curve, poor fit]. In the case of `CCOC(=O)C1CCCN(C(=O)Cn2ncc3c4ccccc4n(C)c3c2=O)C1` (centres undefined), the Potency is reported as “inactive”. In the case of `O=C1NCCOCCCN[C@H]2CCC[C@@H]12`, the Potency is reported as “inactive”. For `Cc1cc(=O)n(CC(=O)Nc2ccccc2C)c(-c2ccccc2)n1`, the Potency was inconclusive: 3.98 µM [inhibitor, single point]. In the case of `Cc1ccc(C)c(CSc2cn(CCNC(=O)c3cccs3)c3ccccc23)c1`, the Potency is reported as inconclusive: 5.62 µM [inhibitor, partial curve]. For `O=C(C[C@@H]1CCNC[C@@H]1Cc1cc(CN2CCCCC2)on1)NCc1cccs1`, the Potency was “inactive”. With `Cc1ccc(C)c(-c2cc3c(=O)n(CCNC(=O)c4cccc(N(C)C)c4)ccn3n2)c1` the Potency was inconclusive: 0.199 µM [inhibitor, full curve, poor fit]. With `Cn1c(CCC(=O)NCc2ccon2)nc2cc(S(=O)(=O)N3CCCC3)ccc21` the Potency was “inactive”. For `O=C(c1n[nH]c2ccccc12)N1CC(Oc2ccccc2-c2nc(C3CC3)no2)C1`, the Potency was inconclusive: 7.94 µM [inhibitor, partial curve, poor fit]. For `CC(C)c1ccc2oc(-c3cc(NC(=O)c4cccnc4)ccc3Cl)nc2c1`, the Potency was inconclusive: 3.98 µM [inhibitor, single point]. For `COc1cc(C(=O)NCC(c2ccc3c(c2)OCO3)N2CCN(C)CC2)cc(OC)c1OC` (centres undefined), the Potency was inconclusive: 17.8 µM [inhibitor, partial curve, poor fit]. In the case of `CCC1(C(=O)NCc2ccc(N3CCC(C)CC3)cc2)CCCCC(=O)N1` (centres undefined), the Potency is reported as “inactive”. In the case of `COc1ccc(N2CCC(NC(=O)c3ccc(N(C)C)cc3)C2=O)cc1` (centres undefined), the Potency is reported as “inactive”. In the case of `Cc1ccc(C(=O)N2CCCC(c3noc(COc4ccccc4)n3)C2)s1` (centres undefined), the Potency is reported as inconclusive: 11.2 µM [inhibitor, partial curve, poor fit]. In the case of `O=C(Nc1cccc(F)c1)C1CCN(S(=O)(=O)c2ccc3[nH]c4c(c3c2)CCCCC4)CC1`, the Potency is reported as active: 11.2 µM. For `O=C(NCCc1ccccc1)c1cnc2n1CCN(CCc1ccccc1)CC2`, the Potency was “inactive”. With `CC(C)(C)CC(=O)N1CCC(C(NC(=O)c2ccccc2)C(=O)NCc2ccco2)CC1` (centres undefined) the Potency was inconclusive: 7.94 µM [inhibitor, partial curve, poor fit]. In the case of `COc1cc(O)ccc1-c1nc2cc(C)ccn2c1Nc1ccccc1C`, the Potency is reported as active: 7.94 µM. For `O=C(COc1ccccc1)N1CCC(Cc2nc(-c3ccncc3)n[nH]2)CC1`, the Potency was inconclusive: 15.8 µM [inhibitor, single point]. In the case of `CC1=C(C(=O)OC(C)C)C(c2ccc(C)cc2)N2C(CC(=O)N(C)Cc3ccco3)=CSC2=N1` (centres undefined), the Potency is reported as “inactive”. For `COc1ccc(-c2cc(C[C@H]3CNCC[C@H]3CC(=O)NCc3ccc4c(c3)OCO4)no2)cc1`, the Potency was inconclusive: 17.8 µM [inhibitor, single point]. With `CC(C)c1ccc(NC(=O)c2cnn3c(C(F)F)cc(-c4ccccc4)nc23)cc1` the Potency was active: 5.01 µM. For `NC(=O)[C@@H]1C[C@H](Oc2cccnc2)CN1C(=O)CC1CCCCC1`, the Potency was “inactive”. For `O=C(c1ccc(F)cc1)N1CCN(C(=O)c2nnn3c2COC(c2ccc(Cl)cc2)C3)CC1` (centres undefined), the Potency was “inactive”. With `O=C(CCC[C@@H]1[C@H]2CCCN3CCC[C@@H](CN1C(=O)c1ccsc1)[C@@H]23)N1CCOCC1` the Potency was inconclusive: 20 µM [inhibitor, single point]. In the case of `COc1ccc(-n2ncc(C(=O)NCCCN3CCCCC3)c2C2CCN(C(=O)OC(C)(C)C)CC2)cc1`, the Potency is reported as inconclusive: 10 µM [inhibitor, single point]. In the case of `O=C(COCC1CCCO1)N1CCc2onc(-c3ccc4c(c3)OCO4)c2C1` (centres undefined), the Potency is reported as “inactive”. In the case of `Cc1nnnn1-c1ccc(NS(=O)(=O)NCc2ccccc2)cc1`, the Potency is reported as “inactive”. With `O=C(N[C@@H]1CN(Cc2c(F)cccc2F)C[C@H]1CO)c1ccccc1` the Potency was “inactive”. With `Cc1cccc(NC(=O)c2oc3ccc(S(=O)(=O)N(C)C4CCCCC4)cc3c2C)c1C` the Potency was inconclusive: 17.8 µM [inhibitor, single point]. For `CCCCN(Cc1ccco1)C(=O)c1cc2c(s1)-c1c(C)cccc1OC2`, the Potency was inconclusive: 11.2 µM [inhibitor, partial curve, poor fit]. For `COc1ccc(C2(C(=O)N3[C@@H]4CC[C@H]3CC(NC(=O)c3cnc(C)cn3)C4)CC2)cc1` (some centres undefined), the Potency was “inactive”. In the case of `O=C(NC1CCCCC1)NC1CCc2nnc(C3CC3)n2CC1` (centres undefined), the Potency is reported as “inactive”. With `CC(C)(C)C(=O)Nc1ccc2nc(SCCOc3ccccc3Cl)sc2c1` the Potency was inconclusive: 15.8 µM [inhibitor, single point]. With `COc1ccc(NC(=O)c2ccc3c(c2)NC(C)(COCC2CC2)CO3)cn1` (centres undefined) the Potency was inconclusive: 0.562 µM [inhibitor, full curve]. In the case of `COc1cccc(CC(=O)N2CCCN(Cc3ccncc3)C(c3ccccc3)CC(=O)NCC2)c1` (centres undefined), the Potency is reported as inconclusive: 1.58 µM [inhibitor, full curve, poor fit]. For `Cc1nn(-c2ccccc2)c(Oc2ccc(F)cc2F)c1CCC(=O)N1CCSCC1`, the Potency was inconclusive: 11.2 µM [inhibitor, single point]. With `COc1ccc(CC(=O)N2CC(CO)C3(CCNCC3)C2)cc1` (centres undefined) the Potency was “inactive”. In the case of `COc1ccc(-n2c(SCc3nc(-c4ccc(Cl)cc4)no3)nnc2-c2ccncc2)cc1`, the Potency is reported as inconclusive: 20 µM [inhibitor, single point]. With `CCOC(=O)N1CCC(NC(=O)c2cnn(-c3ccc(C)cc3)c2C2CCN(C(=O)OC(C)(C)C)CC2)CC1` the Potency was active: 11.2 µM. With `COC(=O)[C@@H]1C[C@H](NC(=O)c2cccc(NC(=O)c3ccco3)c2C)CN1C` the Potency was “inactive”. In the case of `Cn1cc(CC(=O)N2CCCc3ncc(C(=O)NCCc4ccccc4)cc32)c2ccccc21`, the Potency is reported as inconclusive: 7.94 µM [inhibitor, partial curve, poor fit]. For `CC1=NOC2(CCN(Cc3ccccn3)CC2)C1`, the Potency was “inactive”. In the case of `Cc1cn2nc(C(=O)Nc3ccc(C)c(F)c3)cc2c(N(C)Cc2ccccc2)n1`, the Potency is reported as active: 10 µM. With `COC(=O)CNC(=O)c1nc(-c2ccc(F)cc2)c2cnccn12` the Potency was inconclusive: 6.31 µM [inhibitor, partial curve, poor fit]. With `CC(C)CC(=O)N1CCC(N2C[C@H](O)C[C@H]2C(=O)NCc2cccnc2)CC1` the Potency was “inactive”. In the case of `c1cc2nncn2nc1NC1CCCCC1`, the Potency is reported as “inactive”. For `Cc1ccc(C)c(N2CCN(C(=O)C3CCC(CNS(=O)(=O)c4ccc(Br)s4)CC3)CC2)c1` (centres undefined), the Potency was inconclusive: 15.8 µM [inhibitor, single point]. In the case of `COc1ccc(CC(=O)N2Cc3ccccc3CC3(CCN(C)CC3)C2)cc1`, the Potency is reported as inconclusive: 10 µM [inhibitor, partial curve]. In the case of `COc1ccc(OCc2nc(C)c(CCO)c(=O)n2CC(=O)Nc2cccc(C)c2C)cc1`, the Potency is reported as “inactive”. In the case of `Cc1cccc(N2CCN(c3ncncc3-c3nc(-c4ccccc4)no3)CC2)c1`, the activity, negative = inhibition is reported as inconclusive: -31.6% [inhibitor]. With `Cc1ncsc1CN1CCCN(Cc2ccncc2)C(c2ccccc2)CC(=O)NCC1` (centres undefined) the Potency was inconclusive: 1.12 µM [inhibitor, full curve, poor fit]. For `COc1ccc(-c2nc(-c3ccccc3)nc3c2CN(C(=O)C2CC2)CC3)cc1`, the Potency was active: 11.2 µM. With `N#CCn1ccn2nc3c(c2c1=O)CCCC3` the Potency was “inactive”. With `COc1ccccc1CN1CCC2(CC1)OC(=O)N(Cc1ccccc1)C2(C)c1ccccc1` (centres undefined) the Potency was inconclusive: 17.8 µM [inhibitor, single point]. For `O=C(CC1CCN(S(=O)(=O)c2ccccc2)C1)NCc1ccccc1` (centres undefined), the Potency was “inactive”. For `CC1CCN(C(=O)CSc2nc3c([nH]c4ccccc43)c(=O)n2-c2ccccc2)CC1`, the Potency was “inactive”. In the case of `Cc1ccc(CNC(=O)CCn2ccc3cc(S(=O)(=O)N4CCCC4)ccc32)cc1`, the Potency is reported as inconclusive: 20 µM [inhibitor, partial curve, poor fit]. For `COc1ccc(CCNC(=O)CS(=O)Cc2nc(-c3ccc(C)cc3)oc2C)cc1OC` (centres undefined), the Potency was inconclusive: 10 µM [inhibitor, single point]. For `O=C(N1CCC(c2n[nH]c(=O)n2Cc2ccc(F)cc2)CC1)C1(c2ccccc2)CC1`, the Potency was inconclusive: 17.8 µM [inhibitor, single point]. In the case of `CC(NC(=O)C1CCN(C(=O)N2CCOc3ccc(Cl)cc32)CC1)c1ccccc1` (centres undefined), the Potency is reported as inconclusive: 14.1 µM [inhibitor, partial curve, poor fit]. With `O=C(CCc1nc2ccccc2[nH]1)N1CCCC(Cc2noc(-c3ccccc3)n2)C1` (centres undefined) the Potency was inconclusive: 11.2 µM [inhibitor, partial curve, poor fit]. For `COc1ccc(N2CCN(C(=O)c3nn(C)c4c3CS(=O)(=O)c3ccccc3-4)CC2)cc1`, the activity, negative = inhibition was inconclusive: -32.1% [inhibitor] [at 0.594 µM]. With `Cn1cc(CC(=O)N2CCCc3ncc(C(=O)NCC4CCCO4)cc32)c2ccccc21` (centres undefined) the Potency was inconclusive: 8.91 µM [inhibitor, partial curve, poor fit]. In the case of `CCc1cn(C[C@H](NC(=O)C(C)(C)C)C(=O)O)c(=O)[nH]c1=O`, the Potency is reported as “inactive”. In the case of `Cc1ccc2c(CC(=O)Nc3c(C(=O)c4ccc(F)cc4)oc4ccccc34)coc2c1`, the Potency is reported as inconclusive: 17.8 µM [inhibitor, single point]. For `CC(=O)Nc1cccc(-c2n[nH]c3c2CC(=O)N(Cc2ccccc2)C3)c1`, the Potency was “inactive”. In the case of `O=C(CC1CCCN(c2cnn(CC3CC3)c(=O)c2)C1)NCc1cccs1` (centres undefined), the Potency is reported as “inactive”. With `Cc1cc(C)n(CC(=O)N2CCC3(CC2)NCCc2c3[nH]c3ccccc23)n1` the Potency was inconclusive: 6.31 µM [inhibitor, partial curve, poor fit].

From PubChem BioAssay AID1347417 (National Center for Advancing Translational Sciences (NCATS), 2020)
Potency is the fitted concentration of half-maximal effect; tags give direction and shape of the fitted curve.
